Source: the supplement of paper PMC8728848
The other results are listed elsewhere or left out.

Experiments:
Assay in all cases: glycan array binding signal (z-score within array); higher = stronger binding
Settings in all cases: glycan notation: IUPAC condensed, linker removed
[1] = biological target: Fuc(a1-2)Gal(b1-4)GlcNAc(b1-3)Gal(b1-4)GlcNAc(b1-3)Gal(b1-4)GlcNAc
Method in brief: (§1)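 Glycan array data were curated from 3228 arrays in the Consortium for Functional Glycomics database and kept only where the protein sequence was available. Glycan names were converted to IUPAC-condensed notation, and columns mapping to the same glycan were averaged. The binding signal is a within-array Z-score, averaged across arrays of the same protein sequence at different concentrations or buffers and across linkers. Negative Z-scores can be read as non-binding.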

[2] = biological target: Fuc(a1-2)Gal(b1-4)GlcNAc(b1-3)GalNAc
Method in brief: as §1

[3] = biological target: Fuc(a1-2)Gal(b1-4)GlcNAc(b1-3)[Fuc(a1-2)Gal(b1-4)GlcNAc(b1-6)]GalNAc
Method in brief: as §1

[4] = biological target: Fuc(a1-2)Gal(b1-4)GlcNAc(b1-3)[Fuc(a1-3)[Gal(b1-4)]GlcNAc(b1-6)]Gal(b1-4)Glc
Method in brief: as §1

[5] = biological target: Fuc(a1-2)Gal(b1-4)GlcNAc(b1-6)GalNAc
Method in brief: as §1

[6] = biological target: Fuc(a1-2)Gal(b1-4)GlcNAc6S
Method in brief: as §1

[7] = biological target: Fuc(a1-2)Gal(b1-4)[Fuc(a1-3)]GlcNAc
Method in brief: as §1

[8] = biological target: Fuc(a1-2)Gal(b1-4)[Fuc(a1-3)]GlcNAc(b1-2)Man(a1-3)[Fuc(a1-2)Gal(b1-4)[Fuc(a1-3)]GlcNAc(b1-2)Man(a1-6)]Man(b1-4)GlcNAc(b1-4)[Fuc(a1-6)]GlcNAc
Method in brief: as §1

[9] = biological target: Fuc(a1-2)Gal(b1-4)[Fuc(a1-3)]GlcNAc(b1-2)[Fuc(a1-2)Gal(b1-4)[Fuc(a1-3)]GlcNAc(b1-4)]Man(a1-3)[Fuc(a1-2)Gal(b1-4)[Fuc(a1-3)]GlcNAc(b1-2)Man(a1-6)]Man(b1-4)GlcNAc(b1-4)GlcNAc
Method in brief: as §1

[10] = biological target: Fuc(a1-2)Gal(b1-4)[Fuc(a1-3)]GlcNAc(b1-3)Gal(b1-4)[Fuc(a1-3)]GlcNAc
Method in brief: as §1

[11] = biological target: Fuc(a1-2)Gal(b1-4)[Fuc(a1-3)]GlcNAc(b1-3)Gal(b1-4)[Fuc(a1-3)]GlcNAc(b1-3)Gal(b1-4)[Fuc(a1-3)]GlcNAc
Method in brief: as §1

[12] = biological target: Fuc(a1-2)Gal(b1-4)[Fuc(a1-3)]GlcNAc(b1-3)GalNAc
Method in brief: as §1

[13] = biological target: Fuc(a1-2)Gal(b1-4)[Fuc(a1-3)]GlcNAc(b1-3)[Neu5Ac(a2-6)Gal(b1-4)GlcNAc(b1-6)]Gal(b1-4)Glc
Method in brief: as §1

[14] = biological target: Fuc(a1-2)Gal3S(b1-4)GlcNAc
Method in brief: as §1

[15] = biological target: Fuc(a1-2)Gal6S(b1-3)GlcNAc
Method in brief: as §1

[16] = biological target: Fuc(a1-2)Gal6S(b1-3)GlcNAc6S
Method in brief: as §1

Fuc(a1-2)Gal6S(b1-4)Glc = biological target: Fuc(a1-2)Gal6S(b1-4)Glc
Method in brief: as §1

[17] = biological target: Fuc(a1-2)Gal6S(b1-4)Glc6S
Method in brief: as §1

Fuc(a1-2)[Gal(a1-3)]Gal = biological target: Fuc(a1-2)[Gal(a1-3)]Gal
Method in brief: as §1

[18] = biological target: Fuc(a1-2)[Gal(a1-3)]Gal(b1-3)GalNAc
Method in brief: as §1

[19] = biological target: Fuc(a1-2)[Gal(a1-3)]Gal(b1-3)GalNAc(b1-3)Gal(a1-4)Gal(b1-4)Glc
Method in brief: as §1

[20] = biological target: Fuc(a1-2)[Gal(a1-3)]Gal(b1-3)GlcNAc
Method in brief: as §1

[21] = biological target: Fuc(a1-2)[Gal(a1-3)]Gal(b1-3)GlcNAc(b1-2)Man(a1-3)[Fuc(a1-2)[Gal(a1-3)]Gal(b1-3)GlcNAc(b1-2)Man(a1-6)]Man(b1-4)GlcNAc(b1-4)GlcNAc
Method in brief: as §1

[22] = biological target: Fuc(a1-2)[Gal(a1-3)]Gal(b1-3)GlcNAc(b1-2)Man(a1-3)[Fuc(a1-2)[Gal(a1-3)]Gal(b1-3)GlcNAc(b1-2)Man(a1-6)]Man(b1-4)GlcNAc(b1-4)[Fuc(a1-6)]GlcNAc
Method in brief: as §1

[23] = biological target: Fuc(a1-2)[Gal(a1-3)]Gal(b1-3)GlcNAc(b1-3)GalNAc
Method in brief: as §1

[24] = biological target: Fuc(a1-2)[Gal(a1-3)]Gal(b1-3)GlcNAc(b1-6)GalNAc
Method in brief: as §1

[25] = biological target: Fuc(a1-2)[Gal(a1-3)]Gal(b1-4)Glc
Method in brief: as §1

[26] = biological target: Fuc(a1-2)[Gal(a1-3)]Gal(b1-4)GlcNAc
Method in brief: as §1

[27] = biological target: Fuc(a1-2)[Gal(a1-3)]Gal(b1-4)GlcNAc(b1-2)Man
Method in brief: as §1

[28] = biological target: Fuc(a1-2)[Gal(a1-3)]Gal(b1-4)GlcNAc(b1-2)Man(a1-3)[Fuc(a1-2)[Gal(a1-3)]Gal(b1-4)GlcNAc(b1-2)Man(a1-6)]Man(b1-4)GlcNAc(b1-4)GlcNAc
Method in brief: as §1

[29] = biological target: Fuc(a1-2)[Gal(a1-3)]Gal(b1-4)GlcNAc(b1-2)Man(a1-3)[Fuc(a1-2)[Gal(a1-3)]Gal(b1-4)GlcNAc(b1-2)Man(a1-6)]Man(b1-4)GlcNAc(b1-4)[Fuc(a1-6)]GlcNAc
Method in brief: as §1

[30] = biological target: Fuc(a1-2)[Gal(a1-3)]Gal(b1-4)GlcNAc(b1-3)GalNAc
Method in brief: as §1

[31] = biological target: Fuc(a1-2)[Gal(a1-3)]Gal(b1-4)GlcNAc(b1-3)[Fuc(a1-2)[Gal(a1-3)]Gal(b1-4)GlcNAc(b1-6)]GalNAc
Method in brief: as §1

[32] = biological target: Fuc(a1-2)[Gal(a1-3)]Gal(b1-4)GlcNAc(b1-6)GalNAc
Method in brief: as §1

[33] = biological target: Fuc(a1-2)[Gal(a1-3)]Gal(b1-4)[Fuc(a1-3)]Glc
Method in brief: as §1

[34] = biological target: Fuc(a1-2)[Gal(a1-3)]Gal(b1-4)[Fuc(a1-3)]GlcNAc
Method in brief: as §1

[35] = biological target: Fuc(a1-2)[Gal(a1-3)]Gal(b1-4)[Fuc(a1-3)]GlcNAc(b1-3)GalNAc
Method in brief: as §1

B1: SP16664D-bth-476-27-476 (Bacteroides thetaiotaomicron) (protein)
chain: DDLEVGKNIDESAYSGIYENNAYLRDGKSNLVSKVVELHGETYATTVKMGLSKTPNTATSAKVKIDAAYLETYNKAHNTDFALYPQDLVTFANEGILTVNANTKSAEVEMTIRAGEGLQEDKTYAIPVAISDQSSDITIKDEDAKHCIYLVKDMRNAGDAYKGEGVMQGYLFFEVNDVNPLNTLSFQLENGKLLWDVVVLFAANINYDAEAGRPRVQCNPNVQYLLDNNETLLQPLRRRGVKVLLGLLGNHDITGLAQLSEQGAKDFAREVAQYCKAYNLDGVNYDDEYSNSPDLSNPSLTNPSTAAAARLCYETKQAMPDKLVTVFDWGQMYGVATVDGVDAKEWIDIVVANYGSAAYPIGQMTKKQCSGISMEFNLGGGGSLSASKAQSMIDGGYGWFMGFAPSPAKYGSVFSRLQGGGEVLYGSNVAAPTIFYKKNDPTPYKYPDDL
glycan array binding signal (z-score) [1]: -0.247
glycan array binding signal (z-score) [2]: -0.244
glycan array binding signal (z-score) [3]: -0.308
glycan array binding signal (z-score) [4]: -0.158
glycan array binding signal (z-score) [5]: -0.176
glycan array binding signal (z-score) [6]: -0.166
glycan array binding signal (z-score) [7]: -0.147
glycan array binding signal (z-score) [8]: -0.102
glycan array binding signal (z-score) [9]: -0.14
glycan array binding signal (z-score) [10]: -0.17
glycan array binding signal (z-score) [11]: -0.078
glycan array binding signal (z-score) [12]: 0.134
glycan array binding signal (z-score) [13]: -0.167
glycan array binding signal (z-score) [14]: -0.216
glycan array binding signal (z-score) [15]: -0.203
glycan array binding signal (z-score) [16]: 0.57
glycan array binding signal (z-score) (Fuc(a1-2)Gal6S(b1-4)Glc): 0.243
glycan array binding signal (z-score) [17]: -0.155
glycan array binding signal (z-score) (Fuc(a1-2)[Gal(a1-3)]Gal): -0.002
glycan array binding signal (z-score) [18]: -0.059
glycan array binding signal (z-score) [19]: -0.157
glycan array binding signal (z-score) [20]: 0.03
glycan array binding signal (z-score) [21]: -0.325
glycan array binding signal (z-score) [22]: 0.237
glycan array binding signal (z-score) [23]: -0.07
glycan array binding signal (z-score) [24]: 0.067
glycan array binding signal (z-score) [25]: -0.273
glycan array binding signal (z-score) [26]: -0.15
glycan array binding signal (z-score) [27]: -0.229
glycan array binding signal (z-score) [28]: -0.253
glycan array binding signal (z-score) [29]: -0.327
glycan array binding signal (z-score) [30]: -0.291
glycan array binding signal (z-score) [31]: -0.016
glycan array binding signal (z-score) [32]: 0.007
glycan array binding signal (z-score) [33]: -0.184
glycan array binding signal (z-score) [34]: -0.205
glycan array binding signal (z-score) [35]: -0.028
